Assay results as given in PubChem BioAssay (NCATS).
“And” between values parts separate entries of the source, which are not always exact repeats. Identical values can stand only once. The shares of active, inactive and inconclusive entries below differ from those in the screen. Potencies of inconclusive entries are doubtful fits and often do not repeat. The source made the active and inactive calls. Calls follow the shape of the dose curve; as a rule, active = well fitted activation curve with a large enough effect; inconclusive = small, poorly fitted or top-dose-only effect; inactive = no such curve, though single readings can be large or run the other way.

target: Cellular tumor antigen p53 (Homo sapiens) (UniProt P04637); test: Primary qHTS for small molecule compounds that upregulate eGFP-tagged delta133p53alpha (in N-terminal) cells. (AID 2060322); conditions: NCI-H358 eGFP-delta133p53alpha fluorescence, 24 h; activation: stronger effect = higher value; also: nearly all actives have a fitted effect of over 75% in size;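 as to activation: series mostly up to about 56 µM; 0% = DMSO vehicle and 100% = reference activator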
Procedure, shortened: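 NCI-H358 cells pre-induced 24 h with 10 ng/ml doxycycline to express N-terminal eGFP-delta133p53alpha, then dosed 24 h at 37C without doxycycline; fixed, Hoechst-stained, GFP intensity by laser scanning cytometry, normalized to DMSO (0%) and 57.5 uM 5-azacytidine (100%).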
Potency is read from the fitted curve at half-maximal effect; tags tell the direction and shape of the fitted curve.

UniProt P04637, sequence (P04637 whole entry, looked up): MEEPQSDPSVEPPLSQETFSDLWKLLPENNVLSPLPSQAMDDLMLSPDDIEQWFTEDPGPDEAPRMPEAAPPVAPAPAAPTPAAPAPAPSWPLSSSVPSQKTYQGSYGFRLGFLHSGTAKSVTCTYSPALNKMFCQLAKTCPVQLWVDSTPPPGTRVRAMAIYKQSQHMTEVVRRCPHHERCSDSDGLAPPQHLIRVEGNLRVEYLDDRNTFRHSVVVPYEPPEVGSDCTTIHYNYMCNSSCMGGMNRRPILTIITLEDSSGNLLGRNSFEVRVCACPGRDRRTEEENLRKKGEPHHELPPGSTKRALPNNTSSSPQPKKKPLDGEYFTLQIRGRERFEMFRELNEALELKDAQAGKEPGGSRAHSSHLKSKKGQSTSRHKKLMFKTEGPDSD

Q: Which Potency does the source give for `C=CC(=O)Nc1cc2c(Nc3ccc(F)c(Cl)c3)ncnc2cc1OCCCN1CCOCC1` here?
A: active: 4.9 µM

Q: For `c1cc(-c2cnn3cc(-c4ccc(OCCN5CCCCC5)cc4)cnc23)ccn1`, which activation is on record?
A: inactive: 46.6%

Q: `COc1cc(C(=O)NC2CCN(C)CC2)ccc1Nc1ncc2c(n1)N(C1CCCC1)CCC(=O)N2C(C)C` was tested. Which activation did it give?
A: inactive: 7.36%

Q: `COc1ccc2c(c1OC)C(=O)OC2[C@H]1c2c(cc3c(c2OC)OCO3)CCN1C` (stereo not given in full) was tested. Which Potency did it give?
A: inconclusive: 0.544 µM [activator, full curve, poor fit]

Q: With `Cc1c(C(=O)N2CCOc3ccc(-c4ccc(N)nc4)cc3C2)ccc(S(C)(=O)=O)c1F` as the compound, how does the Potency read?
A: active: 26.9 µM

Q: `O=C1Nc2nc(-c3c(O)cccc3OCC3CC3)cc([C@@H]3CCCNC3)c2CO1` was tested. Which Potency did it give?
A: inconclusive: 30.1 µM [activator, single point]

Q: For `COC(=O)Nc1nc2ccc(C(=O)c3ccccc3)cc2[nH]1`, which Potency is on record?
A: inconclusive: 110 nM [activator, partial curve, poor fit] and inconclusive: 1.37 µM [activator, full curve, poor fit]

Q: How did the activation turn out when `Nc1nc(-c2nn(Cc3ccccc3F)c3ncccc23)nc(N)c1N1CCOCC1` was run?
A: inactive: 6.49%

Q: With `CCCCCCCCCC(=O)N[C@@H](Cc1c[nH]c2ccccc12)C(=O)N[C@H](CC(N)=O)C(=O)N[C@@H](CC(=O)O)C(=O)N[C@@H]1C(=O)NCC(=O)N[C@@H](CCCN)C(=O)N[C@@H](CC(=O)O)C(=O)N[C@H](C)C(=O)N[C@@H](CC(=O)O)C(=O)NCC(=O)N[C@H](CO)C(=O)N[C@@H]([C@@H](C)CC(=O)O)C(=O)N[C@@H](CC(=O)c2ccccc2N)C(=O)O[C@@H]1C` as the compound, how does the activation read?
A: inactive: -9.73% and inactive: 21%

Q: `CC(=O)c1cnc2ccc(-c3cc(Cl)c(O)c(Cl)c3)nc2c1NC1CCC(CN(C)C)CC1` (stereo not given) was tested. Which Potency did it give?
A: active: 153 nM and active: 195 nM

Q: With `COC(=O)Nc1nc2ccc(C(=O)c3cccs3)cc2[nH]1` as the compound, how does the Potency read?
A: inconclusive: 4.9 nM [activator, full curve, poor fit] and inconclusive: 33.8 µM [activator, partial curve, poor fit]

Q: Which Potency does the source give for `NC(CO)(CO)CCc1ccc(Sc2cccc(OCc3ccccc3)c2)cc1Cl` here?
A: inconclusive: 43.2 µM [activator, single point]

Q: For `CN(Cc1cc(Br)cc(Br)c1N)C1CCCCC1`, which activation is on record?
A: inactive: -11.7% and inactive: 14.8%

Q: `COc1cc2ncn(-c3cc(OCc4ccccc4C(F)(F)F)c(C(N)=O)s3)c2cc1OC` was tested. Which Potency did it give?
A: inconclusive: 0.863 µM [activator, full curve, poor fit]

Q: For `COc1cc(-c2nn(C3CCC(N4CCN(C(C)=O)CC4)CC3)c3ncnc(N)c23)ccc1NC(=O)c1cc2ccccc2n1C` (stereo not given), which Potency is on record?
A: inconclusive: 1.07 µM [activator, full curve]

Q: `COc1cc(Oc2ccnc3cc(OC)c(OC)cc23)ccc1NC(=O)NC(C)c1nccs1` (stereo not given) was tested. Which Potency did it give?
A: inconclusive: 15.3 µM [activator, full curve, poor fit] and inconclusive: 23.9 µM [activator, partial curve]

Q: `Nc1ncnc2c1c(-c1cnc3[nH]ccc3c1)nn2C1CCCC1` was tested. Which Potency did it give?
A: inconclusive: 24.3 µM [activator, partial curve, poor fit] and active: 26.9 µM

Q: For `CN1CCN(Cc2ccc(NC(=O)Nc3ccc(Oc4cc(NC(=O)C5CC5)ncn4)cc3)cc2C(F)(F)F)CC1`, which Potency is on record?
A: active: 968 nM and inconclusive: 536 nM [activator, full curve, poor fit]

Q: How did the Potency turn out when `CC(C)c1cnn2c(NCc3ccccc3)cc(N[C@@H](CO)[C@H](O)CO)nc12` was run?
A: active: 544 nM and active: 1.51 µM

Q: For `COc1ccc(CNc2nc(N(CCO)CCO)nc3c2ncn3C(C)C)cc1`, which Potency is on record?
A: active: 8.49 µM

Q: For `CNC(=O)c1ccc(Nc2ncc(C(F)(F)F)c(NCc3nccnc3N(C)S(C)(=O)=O)n2)cc1`, which Potency is on record?
A: active: 12 µM and inconclusive: 17.2 µM [activator, partial curve, poor fit]

Q: `N#Cc1c(NC(=O)c2cccc3ccccc23)sc2c1CCCC2` was tested. Which Potency did it give?
A: active: 13.7 µM

Q: How did the Potency turn out when `O=C(c1ccc(Nc2nccc(-c3cc4ccccc4s3)n2)cc1)N1CCC(N2CCCC2)CC1` was run?
A: inconclusive: 37.9 µM [activator, single point]

Q: With `CC[C@]1(O)C[C@H]2CN(CCc3c([nH]c4ccccc34)[C@@](C(=O)OC)(c3cc4c(cc3OC)N(C=O)[C@H]3[C@@](O)(C(=O)OC)[C@H](OC(C)=O)[C@]5(CC)C=CCN6CC[C@]43[C@@H]65)C2)C1` as the compound, how does the Potency read?
A: inconclusive: 0.0049 µM [activator, full curve, poor fit]

Q: How did the Potency turn out when `CCCCC(F)(F)[C@@]1(O)CC[C@H]2[C@H](CC(=O)[C@@H]2CCCCCCC(=O)O)O1` was run?
A: inconclusive: 19.3 µM [activator, partial curve, poor fit]

Q: For `COc1ccc2c(c1)c(C1=C(c3c[nH]c4ccccc34)C(=O)NC1=O)cn2CCCN(C)C`, which Potency is on record?
A: inconclusive: 43.2 µM [activator, partial curve, poor fit]

Q: Which Potency does the source give for `COc1cc([C@@H]2c3cc4c(cc3[C@H](O)[C@H]3COC(=O)[C@H]23)OCO4)cc(OC)c1OC` here?
A: inconclusive: 0.0276 µM [activator, single point]

Q: `O=[N+]([O-])c1ccc(-c2nc(-c3ccc(F)cc3)c(-c3ccncc3)[nH]2)cc1` was tested. Which Potency did it give?
A: inconclusive: 37.9 µM [activator, single point]

Q: How did the activation turn out when `COc1ccc(S(=O)(=O)Nc2cc(-c3c(O)ccc4ccccc34)c(O)c3ccccc23)cc1` was run?
A: inactive: 23.1%

Q: How did the Potency turn out when `C1=C/COCc2cc(ccc2OCCN2CCCC2)Nc2nccc(n2)-c2cccc(c2)COC/1` was run?
A: active: 15.3 µM

Q: For `Cc1nc(-c2cn3c(n2)-c2ccc(-c4cnn(C(C)(C)C(N)=O)c4)cc2OCC3)n(C(C)C)n1`, which Potency is on record?
A: inconclusive: 15.1 µM [activator, partial curve, poor fit]

Q: How did the Potency turn out when `COc1cccc(Nc2ncnn3ccc(CN4CC[C@@H](N)[C@H](O)C4)c23)c1` was run?
A: inconclusive: 12 µM [activator, partial curve, poor fit]

Q: `CN(C)CCCN=c1c2ccccc2n(C)c2[nH]c(=O)n(C)c(=O)c12` was tested. Which Potency did it give?
A: inconclusive: 27.3 µM [activator, single point]

Q: For `COc1ccc(OC)c(-c2nnc3ccc(-c4ccc(OC)c(O[C@@H]5CCOC5)c4)nn23)c1`, which Potency is on record?
A: inconclusive: 19.3 µM [activator, partial curve, poor fit]

Q: Which Potency does the source give for `CCN1CCN(Cc2ccc(Nc3ncc(F)c(-c4cc(F)c5nc(C)n(C(C)C)c5c4)n3)nc2)CC1` here?
A: active: 12 µM

Q: With `CC(C)(C)C(=O)OCOP(=O)(COCCn1cnc2c(N)ncnc21)OCOC(=O)C(C)(C)C` as the compound, how does the Potency read?
A: inconclusive: 38.9 µM [activator, single point] and inconclusive: 43.2 µM [activator, single point]

Q: Which Potency does the source give for `Cn1c(NC[C@@H](N)Cc2ccccc2)nc(-c2ccncc2)c(-c2ccc3ccccc3c2)c1=O` here?
A: inconclusive: 37.9 µM [activator, single point]

Q: How did the Potency turn out when `CCNC(=O)C#Cc1ccc2c(C(=Nc3ccc(CN(C)C)cc3)c3ccccc3)c(O)[nH]c2c1` was run?
A: active: 13.1 µM

Q: With `C#CC[C@H](c1nc2cc(Cl)ccc2c(=O)n1Nc1ccccc1)N(CCCN)C(=O)c1cccc(Cl)c1F` as the compound, how does the Potency read?
A: active: 4.78 µM

Q: `CCN(CC)CCNC(=O)c1ccc2nc(-c3ccccc3)c(-c3ccc(CN4CCC(n5c(=O)[nH]c6ccccc65)CC4)cc3)nc2c1` was tested. Which Potency did it give?
A: active: 4.32 µM and active: 8.49 µM
